Assay results taken from paper PMC6919601, “Identification of Plasmodium dipeptidyl aminopeptidase allosteric inhibitors by high throughput screening” (PLoS ONE, 2019).
Out of some 110,000 compounds screened, about 230 (0.21%) showed an effect of 50% or more. The list shows a part of the results.

Target: DPAP1 (Plasmodium falciparum, UniProt Q8IIJ9)
Assay: primary screen, percent inhibition; read by cleavage of a fluorogenic dipeptide substrate; higher = more effect of the substance
Design: species or system P. falciparum D10 trophozoite lysates; single well
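Further: 30 min substrate incubation versus DMSO and 10 µM JCP410 controls.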

Sequence of DPAP1 (Q8IIJ9 whole entry, looked up): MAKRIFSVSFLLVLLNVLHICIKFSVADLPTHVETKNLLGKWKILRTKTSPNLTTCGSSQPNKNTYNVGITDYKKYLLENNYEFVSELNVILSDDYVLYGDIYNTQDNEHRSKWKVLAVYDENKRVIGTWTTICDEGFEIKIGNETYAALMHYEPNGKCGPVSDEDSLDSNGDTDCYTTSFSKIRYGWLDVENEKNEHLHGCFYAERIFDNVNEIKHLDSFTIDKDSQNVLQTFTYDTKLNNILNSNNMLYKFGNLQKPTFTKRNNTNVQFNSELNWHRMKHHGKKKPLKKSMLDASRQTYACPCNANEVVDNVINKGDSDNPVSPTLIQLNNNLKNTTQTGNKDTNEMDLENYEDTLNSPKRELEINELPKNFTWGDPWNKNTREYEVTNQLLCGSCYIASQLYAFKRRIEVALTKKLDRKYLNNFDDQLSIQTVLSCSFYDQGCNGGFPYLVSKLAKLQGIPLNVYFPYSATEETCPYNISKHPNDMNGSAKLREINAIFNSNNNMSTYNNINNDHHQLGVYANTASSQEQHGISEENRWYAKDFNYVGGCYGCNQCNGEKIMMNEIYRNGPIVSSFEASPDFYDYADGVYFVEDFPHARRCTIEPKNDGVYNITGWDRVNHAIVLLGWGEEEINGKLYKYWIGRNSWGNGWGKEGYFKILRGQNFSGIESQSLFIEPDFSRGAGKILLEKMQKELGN

Structure (SMILES) | % Inhibition @ 10 uM [%]
N#CCNC(=O)C1(NC(=O)CCc2ccccc2)CCCCC1 | 0.079
NC(=O)C1CCCc2c1[nH]c1ccccc21 (centres unmarked) | 0.486
Cc1csc(NC(=O)CN(Cc2ccccc2)S(=O)(=O)c2ccc3nc(C)sc3c2)n1 | -6.31
CC12C(=O)N(c3cccc(Cl)c3Cl)C(=O)C1C1C=CC2C1 (centres unmarked) | -5.15
CCS(=O)(=O)c1nc(S(=O)(=O)c2ccc(C)cc2)c(NCCOC)s1 | -2.25
Cc1ccc(CS(=O)(=O)Cc2ccc(C(=O)NCc3cccnc3)o2)cc1 | 3.79
O=C(CCCCCN1C(=O)c2cccc3cccc(c23)C1=O)N1CCOCC1 | -6.11
Cc1cc(-c2ccc(C)c(S(=O)(=O)N(CC(C)C)CC(C)C)c2)on1 | -4.9
COc1ccc(-n2cc(-c3ccccc3)c3c(N4CCN(CCO)CC4)ncnc32)cc1 | 7.04
CCC(C)Oc1ccc(C=C2C(=O)c3ccccc3C2=O)cc1OC (centres unmarked) | -5.15
Cn1cc(C(=O)Nc2ccccc2C(C)(C)C)cn1 | -5.85
O=C(NCCc1ccccc1)C1CCN(S(=O)(=O)c2ccc(Br)s2)CC1 | -6.57
Cc1nn(CC(=O)NCc2ccco2)c2ccccc12 | 0.596
CC1CCc2c(sc3ncnc(N4CCN(CCO)CC4)c23)C1 (centres unmarked) | -0.85
CC(C)c1nn2cc(-c3cccc(Br)c3)nc2s1 | -4.54
COc1ccc(C(=O)N2CCOCC2)c(OC)c1 | 4.49
O=C(Cn1ccc2cc(S(=O)(=O)N3CCCC3)ccc21)NCCc1ccccc1Cl | -0.899
CN1CCN(CCCC(=O)c2ccc(C3CCCC3)cc2)CC1 | -9.7
Cc1cccc2sc(N(CCCN(C)C)C(=O)c3ccccc3Cl)nc12 | 4.44
CC1CC(C)CN(c2ncnc3scc(-c4ccccc4)c23)C1 (centres unmarked) | 3.45
COc1cc(CN2CCN(Cc3ccc(C)cc3)CC2)cc(OC)c1OC | -0.795
COc1cccc(C2=CC(c3cccc(F)c3)n3nnnc3N2)c1 (centres unmarked) | -1.62
CCOc1cc(-c2nc(C)c(C(C)=O)n2O)ccc1OCC(=O)Nc1cccc(C(F)(F)F)c1 | 3.99
O=c1oc2ccccc2cc1-c1nc(-c2ccc(Cl)cc2)cs1 | -0.975
Cc1cccc(NC(=O)c2ccccc2NC(=O)C2CCCCC2C(=O)O)c1 (centres unmarked) | -2.76
O=C(O)C1CCCN(c2ncnc3onc(-c4ccc(Cl)cc4)c23)C1 (centres unmarked) | -3.95

Structure (SMILES) | % Inhibition @ 10 uM [%]
CC(C)c1ccc(C=C2C(=O)NC(=O)NC2=O)cc1 | 4.66
Nc1cc(O)nc(SCC(=O)Nc2nccs2)n1 | 0.569
COc1cccc(CN2C(=O)c3ccc(C)cc3C2=O)c1 | 3.53
Cc1cc(C)cc(OCc2nc3cc(Br)cnc3[nH]2)c1 | -4.26
CCOC(=O)N1CCN(C(=O)C2CCN(S(=O)(=O)c3ccc(Br)s3)CC2)CC1 | -3.87
CCCS(=O)(=O)N1CCCC(C(=O)N2CCCCC2)C1 (centres unmarked) | -1.79
COc1ccc(-c2csc(N)c2C(=O)OC(C)C)cc1OC | -3.92
C=Cc1ccc(Cn2c(C(=O)O)c(CNCCc3c[nH]c4ccccc34)c3ccccc32)cc1 | 0.277
CC(C)CN1C(=O)c2cccc3cc(Br)cc(c23)C1=O | -3.45
O=c1oc2ccccc2cc1-c1csc(-c2nc(-c3cc4ccccc4oc3=O)cs2)n1 | 3.48
CCN(CC)CCNc1nc2c(c(=O)[nH]c(=O)n2C)n1CC(O)COc1cccc(C)c1 (centres unmarked) | -2.91
Cc1cc(=O)oc2c(CN3CCOCC3)c(O)ccc12 | 1.13
Cc1nc2ccccc2n1S(=O)(=O)c1ccc2c(c1)C(=O)c1ccccc1C2=O | 4.55
COc1ccccc1NS(=O)(=O)c1ccc(NC(=O)C23CC4CC(CC(C4)C2)C3)cc1 | -4.69
CSc1nc2c(c(=O)n1C1CCCC1)C1(CCCCC1)Cc1ccccc1-2 | -2.21
O=C(CN(Cc1ccc(F)cc1)S(=O)(=O)c1ccccc1)NC1CCCCCC1 | -1.39
N#CC1=C(N)OC2=C(C(=O)CC(c3ccccc3)C2)C1c1cccs1 (centres unmarked) | -1.38
CCOC(=O)c1c(NC(=O)c2nc(SC)ncc2Cl)sc2c1CCCC2 | -2.85
CCC(=O)Nc1sc2c(c1C(N)=O)CCC(C)C2 (centres unmarked) | 22.7
COc1cc(-c2ncnn2-c2ccc(Cl)cc2)cc(OC)c1OC | 5.37
FC(F)(F)c1cccc(-c2nnc(-c3ccncc3)o2)c1 | -3.8
COc1cc(C2Nc3cccc4cccc(c34)N2)cc(Br)c1O | -0.641
O=C(O)CN1C(=O)C2C3CC(C2C1=O)C1C(c2cccnc2)c2sc(O)nc2SC31 (centres unmarked) | 6.31
Cc1cc(C)n(-c2nc3nonc3nc2Nc2cccc(C(F)(F)F)c2)n1 | 15.9
COc1ccc(NC(=O)CN(c2cc(Cl)ccc2OC)S(C)(=O)=O)cc1 | -3.04
Cc1ccccc1Cc1c(C)nc2c(C(=O)n3ccnc3)cnn2c1C | 8.9

Structure (SMILES) | % Inhibition @ 10 uM [%]
COc1ccc(OC)c(C2CC(c3ccc(C)cc3)=NN2S(=O)(=O)c2ccccc2)c1 (centres unmarked) | 0.611
CC(Oc1ccccc1)C(=O)Nc1cccc2cccnc12 (centres unmarked) | 4.11
COc1ccc(/C=C/C(=O)NCCSc2c[nH]c3ccccc23)cc1OC | 3.25
CCOc1ccc(C2N(c3cc(C)on3)C(=O)C3CCCN32)cc1 (centres unmarked) | -0.499
Cc1ccc2ncnc(NCCC(=O)O)c2c1 | -0.142
C=CCn1c(NCCCOC)nc2c1c(=O)n(C)c(=O)n2C | 4.93
COc1ccc(NC(=O)c2nccnc2C(=O)O)cc1 | -4.01
CCCN1C(=O)c2[nH]nc(-c3cccc(OC)c3)c2C1c1ccc(O)c(OCC)c1 (centres unmarked) | -6.56
O=C(Cc1ccc(Cl)cc1)Nc1ccncc1 | -2.74
CCn1cc(CCC(=O)NC(C)c2ccccc2)c2ccccc21 (centres unmarked) | -4.34
Nc1c(-c2nc(-c3ccccc3)no2)nnn1-c1cccc(F)c1 | -1.01
Cc1cccc(-c2nc3n(n2)C(c2ccccc2Cl)C2=C(O)CC(C)(C)CC2=N3)c1 (centres unmarked) | 0.275
COc1ccc(-c2noc(-c3nnn(-c4cccc(C)c4)c3N)n2)cc1 | 3.73
CC(C)C[C@H](NC(=O)c1cc(-c2ccncc2)cc(-c2ccncc2)c1)C(=O)NCC#N | -8.26
COc1ccc(S(=O)(=O)NC(CC(=O)O)C(C)C)cc1 (centres unmarked) | 1.21
Cc1c(C)c(C)c(C(=O)Nc2ccc(Cl)c(Cl)c2)c(C)c1C | -1.54
Cn1c2ccccc2c2[nH]c3ccccc3c21 | 4.42
Cc1cccc(C(=O)Nc2nccc(C)n2)c1 | 0.163
COc1ccc(Br)cc1CN1CCN(C)CC1 | -0.192
O=S(=O)(Cc1ccccc1)c1nc2ccccc2n1Cc1ccccn1 | 2.72
Cc1cc2ccccc2n1CCNC(=O)c1ccc(F)c(F)c1 | 1.39
CC(C)CC(C(=O)NCC#N)c1cccc(-c2ccc(S(=O)(=O)NCCO)cc2)c1 (centres unmarked) | -4.72
Cc1cc(C)c2c(CC(=O)Nc3ccccc3C)coc2c1 | -3.77
O=C(Nc1ccccn1)c1ccc(-c2ccc(Cl)cc2)o1 | 4.83
CC(CN1CCC(C(N)=O)CC1)c1ccccc1 (centres unmarked) | 1.62
Cc1ccc2c(CN(C)CCC#N)cc(=O)oc2c1 | -3.49

Structure (SMILES) | % Inhibition @ 10 uM [%]
CCOc1ccc(CN2C(=O)CS/C2=N\N=C\c2ccc(OC)c(OC)c2)cc1 | 3.95
Cc1cc(NC(=O)CN(C)C2CCCCC2)nc2c1c(=O)oc1ccccc12 | -4.46
COCc1cc(C2SCC(=O)Nc3c2c(O)nn3C2CCCCCC2)ccc1OC (centres unmarked) | -4.26
CCC1(C)COC2(OC1)C(=O)N(CN1CCOCC1)c1ccccc12 (centres unmarked) | 3.7
Cc1nc2nc(N)nc(OCc3ccccc3)c2nc1C | 0.709
CC(=O)N1C(=O)C2(C(C#N)=C(N)Oc3[nH]nc(-c4ccncc4)c32)c2ccccc21 (centres unmarked) | 3.92
O=C(NC12CC3CC(CC(C3)C1)C2)C1CC(=O)N(c2ccccc2)C1 (centres unmarked) | 7.05
COc1cc(C)c(S(=O)(=O)NCCc2c(C)[nH]c3c(C)cccc23)cc1C | -0.703
Cn1cnc2c(=O)oc3ccc(S(=O)(=O)N4CC5CC(C4)c4cccc(=O)n4C5)cc3c21 (centres unmarked) | -5.54
CCCCN(C)C(=O)/C(=C/c1cn(CC)c2ccccc12)NC(=O)c1ccccc1F | 1.64
Nc1c(-c2nc(-c3ccncc3)no2)nnn1-c1cccc(C(F)(F)F)c1 | 2.19
CC(=O)NC1=NC(=O)/C(=C/c2ccc(-c3ccc(C)c(Cl)c3)o2)S1 | 21.6
CCc1ccc(C(=O)N2CCC(c3nc(O)c4nnn(Cc5ccc(C)cc5)c4n3)CC2)cc1 | 0.401
COCCNC(=O)Cn1nc(Cc2ccncc2)c2ccccc2c1=O | -4.69
CCCC(=O)c1c(Nc2cccc3ccccc23)cc(C)oc1=O | 4.04
COc1cc(CN2CCCCCCC2)cc(OC)c1O | -0.197
Cc1cc(NC(=O)CCn2cccn2)c2ccccc2n1 | -3.41
CC(C)NC(=O)Nc1cn(C)c(=O)c2ccccc12 | 5.38
CCn1c(C)c(-c2ccccc2)c2cc([N+](=O)[O-])ccc21 | -0.294
Nc1n[nH]c(-c2ccncc2)n1 | 4.61
C=C1c2ccccc2NC(=O)N1c1cccc(Cl)c1 | -7.22
COc1ccccc1CNC(=O)c1cc(-c2cccs2)nc2ccccc12 | -5.57
CCc1cc2c(cc3c(O)nncn32)s1 | -5.38
